# The list shows a part of the results.
# B1: 56000718_56002823_2382_CDS_ENSMUSG00000022601_ENSMUST00000050248|mouse|control|control (ssRNA)
# RNA: GGGAGUUCUACAGUCCGACGAUCUCCUGUGUGAAUACUCAUAUGUUCCUGAAGACUCCGCUUGGUAACAAAUGACUUGACACACAGUUCACACUGAAACUGCUUUUGUGAUUGAUGCAGACUUUGAUGCAAUUUUAGACCAUGCAACAGAGGAUUGAGCAUCA
# B2: chr5:125866394:125866395:-_ENSMUSG00000008348_ENSMUST00000136312|mus_hu|FALSE|FALSE (ssRNA)
# RNA: GGGAGUUCUACAGUCCGACGAUCACAACUUUAUUGAAAGGAAAGUGCAAUGAAAUUUGUUGAAACCUUAAAAGGGGAAACUUAGACACCCCCCCUCAAGCGCAGGACCAAGUGCAGAGUGGACUCUUUCUGGAUGUUGUAGUCCAACAGAGGAUUGAGCAUCA
# B3: chr18:35732044:35732045:+_ENSMUSG00000037236_ENSMUST00000166793|perfect_dup|FALSE|FALSE (ssRNA)
# RNA: GGGAGUUCUACAGUCCGACGAUCAAUUUGGGGCAAGUUCUCAGGAGUAAUCUUGUCCUCUGGAUAGCGACUCAGUUCAUCUAAGUCUCUAGCAGACAGACCAAAGCUGGCCAAAAUAUUACUGGCCUGGUCUGUAUCUCCACGCAACAGAGGAUUGAGCAUCA
# B4: chr4:76721835:76721836:+_ENSG00000138768_ENST00000264904|hu_mus|hu_hu_hu_mus_True|8_68 (ssRNA)
# RNA: GGGAGUUCUACAGUCCGACGAUCGUUUGGCUGGGGUUUCUGAGACGCUCUGGAAUAUAACUCAUGUUGCUAAUAAAAUCCUAGUUUCUCUAUGAAAUUCUCUUUGCCAAUCCUCUUCUCUAUUAGUGUUUUAGCUUUCUCUUUCAACAGAGGAUUGAGCAUCA
# B5: chr10:118639881:118639882:-_ENSMUSG00000020114_ENSMUST00000020315|mus_mus|motif|central (ssRNA)
# RNA: GGGAGUUCUACAGUCCGACGAUCAACAUCAGUGGCUUUACAACCUCUGGCUUAUGGAAAUACAGACUUCUGAAGUAAAAGCGGCAAAAACAACAAUGGAAGAAAGCCAAACAAACUUCCCGGGAAGGAAAGUAAAGUGGAACACAACAGAGGAUUGAGCAUCA
# B6: chr17:45747064:45747065:+_ENSG00000108424_ENST00000290158|hu_hu|hu_hu_hu_mus_True|38_38 (ssRNA)
# RNA: GGGAGUUCUACAGUCCGACGAUCGCCCACAGUCCACGCUGUUGUGUCUCGAACAACUACACUGGGGUCUUUCAUUAGUUCUAUUAGGGUGGGCAUAGCCUGUAUAACUAAUGGUUUCAGUUGAUUAGGCUCUGGUCCUUCCAACAACAGAGGAUUGAGCAUCA
# B7: chr7:125832625:125832626:-_ENSMUSG00000033917_ENSMUST00000038791|mus_mus|FALSE|FALSE (ssRNA)
# RNA: GGGAGUUCUACAGUCCGACGAUCAAGGUGGGACUCGUAGUAAUUCUUUUCAUCAAAGGUAUUGACAGUCCAACUCACAACCUGGAUUCCUUUAGCUGACCACUUCUUCAAAUAGUCCGGGGAGACAAAAUCCUUCUGCAUGAGCAACAGAGGAUUGAGCAUCA
# B8: chr14:102368134:102368135:+_ENSG00000078304_ENST00000445439|hu_hu|hu_hu_hu_mus_True|88_88 (ssRNA)
# RNA: GGGAGUUCUACAGUCCGACGAUCAAGAGGCUCCAUGAUCUUCACAAAUUCUGAUGGUUCAAUUACAUCUAAAAUUUCUUCUAAUUCAUUUAAGAACAUUACUUCUUUUGGACUGUGAGUCUUUGGCCAGUAUUUGAGAAGUGCCAACAGAGGAUUGAGCAUCA
# B9: chr2:198351390:198351391:-_ENSG00000144381_ENST00000345042|hu_hu|hu_hu_hu_mus_False|8_18 (ssRNA)
# RNA: GGGAGUUCUACAGUCCGACGAUCUCAUUCCCACCCUCCACAGAAAGGCUGCUUCUGAACUCUCAUGUGGUGACACAGCGCUACAGUCCUGAUGCUCACAGAACAGUAGAGAUGCCUCCUCAGUGAUUUAAGUUGAAAGGACACCAACAGAGGAUUGAGCAUCA
# B10: chr2:9628331:9628332:+_ENSG00000134330_ENST00000482918|hu_mus|FALSE|FALSE (ssRNA)
# RNA: GGGAGUUCUACAGUCCGACGAUCUUCCUCCACAUCCUUCCAGUAAGGAAGCAGCCACGGCAGAGAUGAGACCUUCUUGUCCAGCAGUGGACAGAGGUUUAAGAACAGAAACUCAUUUCCCAUUGGUGAUAAAUGCAGGCCAUCCAACAGAGGAUUGAGCAUCA
# B11: chr11:124637793:124637794:-_ENSG00000120458_ENST00000374979|hu_mus|FALSE|FALSE (ssRNA)
# RNA: GGGAGUUCUACAGUCCGACGAUCCUGUGAGCUGAUCUCAGCAUAAUGGUAACGAAUAUCCUCUUUCCAGCGGGUGUUAUAGCCAAUUCCAAAAAUGGCCAAUUUAUUGGAAAGAUGGAGCCUUGAGAAGUCUGUCCAACUCUGCAACAGAGGAUUGAGCAUCA
# B12: chr2:179515052:179515053:+_ENSMUSG00000000305_ENSMUST00000000314|mus_hu|mus_mus_mus_hu_False|18_38 (ssRNA)
# RNA: GGGAGUUCUACAGUCCGACGAUCGCUGUCCCAUGCAGUCACCGUGAACGCCACCUGCUCGGAGGGGACCUGCAGCUCCCGGGUGGCGAAGACUGUCCCAUCCGCCCCAACUUUGAAGUCCAAGCUGUUGGUCUCAUAUUGUGUCAACAGAGGAUUGAGCAUCA
# B13: 31378140_31381174_497_CDS_ENSMUSG00000025609_ENSMUST00000026699|mouse|control|control (ssRNA)
# RNA: GGGAGUUCUACAGUCCGACGAUCAAAGUUAAAGCUGGGCCCCCAGGACAAAAGUGGAACAAUUUUAAUGAAUCGACAAGGGAACAUCUGUUCAUCAAUUUUAUGUUUCAAGGUAAAUGUCUCUUUGUUAUAAUCAUUCUUCAGCAACAGAGGAUUGAGCAUCA
# B14: chr18:9954606:9954607:+_ENSG00000101558_ENST00000400000|hu_hu|motif|central (ssRNA)
# RNA: GGGAGUUCUACAGUCCGACGAUCACCAUUUCCCCAAGGAAUACCUCUUGGCAUUUCCUGAAUGAGUGGGAUUAGCAAUCGGAAUAAAUCAUAUUUCAAGAGGUAACAGCAACAGAUAAAAUUUAAAGGGAUUAUUAAAAUAACCAACAGAGGAUUGAGCAUCA
# B15: chr4:52499564:52499565:+_ENSMUSG00000028312_ENSMUST00000117280|mus_mus|FALSE|FALSE (ssRNA)
# RNA: GGGAGUUCUACAGUCCGACGAUCCAUUAUUAUAUAAACAACUUGGAUCCCAAAUUCUUGGAAGUUCAUGUGUAAAAACGUCAAGGUGAGAAGUCUGUACUCUGAACUGGCAUGCACUCAGUUGGGUUCUUUUCCUCUGGACUUCAACAGAGGAUUGAGCAUCA
# B16: chrX:119742084:119742085:+_ENSG00000232119_ENST00000371317|hu_hu|motif|central (ssRNA)
# RNA: GGGAGUUCUACAGUCCGACGAUCAAAAGGAUAUUUGUGAAGUAAUCUUAGGGUUGGAUAAAAAGGCCCUUCUCUUUGUCGGAAAAAGAGUAAUUCUCCAUUUACUGUAAGGAUUUCUAUAUGUUCAUGGCAUCGGACUAUUUUCAACAGAGGAUUGAGCAUCA
# B17: chr7:149068622:149068623:-_ENSMUSG00000025139_ENSMUST00000001950|mus_hu|mus_mus_mus_hu_False|1_98 (ssRNA)
# RNA: GGGAGUUCUACAGUCCGACGAUCGUGAGGCCUCUGAGUGAGGUUCCUGGUCUGUCCUGGGUUAGAGUUGUUAAUAUCACGGAACAUACCAUCUAGAACGUUCCAGUCCCGCCUGACACCUUCAUUCCCAAUGGAGAAUCUGCUCAACAGAGGAUUGAGCAUCA
# B18: 116312975_116323887_1210_CDS_ENSMUSG00000029516_ENSMUST00000051704|mouse|control|control (ssRNA)
# RNA: GGGAGUUCUACAGUCCGACGAUCAUCCCCUCCAGGCUGAUAUUCCAUGACCAGGUAAAGGUUAUUUUUGUCCUGAAAGGCGUACUGUAACUGGGGGAUCCAAGGACUCGUGCUCCGAGAUAAUAUGUUCCUCUCCUCCUCGAACAACAGAGGAUUGAGCAUCA
# B19: 46233861_46236241_1503_CDS_ENSMUSG00000037697_ENSMUST00000051310|mouse|control|control (ssRNA)
# RNA: GGGAGUUCUACAGUCCGACGAUCGUAGUACAUGAUGUCCAUCGCGCUGCUGUUGAGCAUGUCCCUCAGGCCUCGCACUUUGUCAGGAGUGAUGGAAUCAACUGUGUCUCCAUCAAGAGUAAGCUUUGAUCGCCAUUCAACAGGCAACAGAGGAUUGAGCAUCA
# B20: chr17:34945718:34945719:+_ENSG00000005955_ENST00000304718|hu_hu|motif|central (ssRNA)
# RNA: GGGAGUUCUACAGUCCGACGAUCAUUUAACCGGCAGUAUUUAUUAAAUUUCUCCUUCAGAUGCUGUCGGUAUUGUUCUCGGUUGCUGUAGAAAGACUGGUUAUUAGCCAUAAAUGACUGUAUUUCAUCUUGUGAGAUAAAGAUCAACAGAGGAUUGAGCAUCA
# B21: chr2:224770714:224770715:-_ENSG00000085449_ENST00000233055|hu_hu|FALSE|FALSE (ssRNA)
# RNA: GGGAGUUCUACAGUCCGACGAUCAUGAGCUGGGUAGGUCUUGAUAAAGUUCAUUUUAUUAAAAUCUUCAGAAACGUGAAAUUCCAUUACAGCUCCAUUAUCCUGGCCCACAAAUAUCCGUCUGCUGUCAUGAUGGUAAGCCAUCAACAGAGGAUUGAGCAUCA
# B22: chr7:75932113:75932114:+_ENSG00000106211_ENST00000248553|hu_hu|hu_hu_hu_mus_False|18_48 (ssRNA)
# RNA: GGGAGUUCUACAGUCCGACGAUCCUGCGACCACUCAUCGGGCAACCGGGGCACCCCGAAAGCUUGAUCGAAGAGGCGGCUGUGUGCGUACCAGUCGUCCCGGAAUGGUUCCCAGCUGCCCCGCAGGAGCAGCGAGAAGGGCACCAACAGAGGAUUGAGCAUCA
# Target: T1, UNK ZnF1-3 (human, UniProt Q9C0B0 31-174)
# T1 sequence: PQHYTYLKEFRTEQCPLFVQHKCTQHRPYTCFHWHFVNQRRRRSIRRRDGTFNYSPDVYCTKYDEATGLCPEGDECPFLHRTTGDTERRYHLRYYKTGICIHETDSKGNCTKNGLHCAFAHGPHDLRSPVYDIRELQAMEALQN
# Assay: nsRBNS (natural sequence RNA bind-n-seq); RBNS binding buffer (assumed for nsRBNS): 25 mM Tris pH 7.5, 150 mM KCl, 3 mM MgCl2, 0.01% Triton X-100, 500 ug/ml BSA, 20 U/ml SUPERase-In, 4 C; UNK is unkempt and MSI1 is Musashi-1; names of the RNAs are library labels; protein concentration not given here; high values mean tight binding
row,Binder,binding signal [enrichment R]
1,B1,0.659
2,B2,1.57
3,B3,0.399
4,B4,0.679
5,B5,1.83
6,B6,0.507
7,B7,1.49
8,B8,0.715
9,B9,1.39
10,B10,1.2
11,B11,0.702
12,B12,0.751
13,B13,1.02
14,B14,3.2
15,B15,0.725
16,B16,0.454
17,B17,0.783
18,B18,0.906
19,B19,0.731
20,B20,0.479
21,B21,1.02
22,B22,0.546

# Reference: PMC12136788
